# Source: the supplement of paper PMC11383711
# The list shows a part of the results. Binding of human antibodies (heavy:light variable regions, tested as scFv in one mRNA-display pool) to influenza hemagglutinin, with or without the stem antibody CR9114 bound first. Score = (mean enrichment − median) / interquartile range of that screen; higher = more enriched, 0 = typical non-binder. Active = above the paper's cut-off per screen: stems 28; unblocked H1 Solomon Islands 5, H1 Michigan 3, H3 5, H5 19, H7 2.85, both B 5; blocked 9, 7, H5 10, H7 10, B Phuket 10, B Lee 11.5. Scores are scaled within each screen and are no affinities; replicates correlate at about 0.6 to 0.9, and antibodies rare in the pool are noisier.
# B1: 220-14-IgG-1E01 (protein)
# chain 1: EVQLVESGGGLVQPGGSLRLSCAASGFTSSSYEMNWVRQAPGKGLEWISFISKSESIISYADSVKGRFTISRDSAKNSLYLQLTSLRAEDTAVYYCARLGLLGFGELGPPHWYYAMDVWGQGTTVTVSS
# chain 2: EIVLTQSPGTLSLSPGERATLSCRASQSVSSTYLVWYRQRPGQAPRLLIYGASKRATGIPDRISGSGSGTDFTLTISRLEPEDFAVYYCQVYGSSPLFAFGPGTK
# B2: K77-1C04 (protein)
# chain 1: QVQLQESGPGLVKPSETLSLTCTVSGGSISSSRYYWGWIRQPPGKGLECIGTIYYTGNTYYNPSLKSRVTISVDTSKNQFSLKLRSVTAADTAVYYCAREGQWLDPNYFDYWGQGALVTVSS
# chain 2: DIVMTQSPDSLAVSLGERATINCKSSQSVLFRSNNKNCVAWYQQKPGQPPKLLIYWASTRESGVPDRFSGSGSGTDFTLTINSLQAEDVAVYYCQQYYSTPQTFGQGTKVEIK
# B3: 037-10-5E04 (protein)
# chain 1: QVQLQESGPGLVKPSETLSLTCTVSGTSITTHYWSWIRQTPGKGLEWIGHISSDGTTNFNPSLKSRVTISMDTSKNQFSLNLSSVTAADTAVYYCARDFRERLGHRWEQAFDFWGQGSLVTVSS
# chain 2: DIQMTQSPSSLSASVGDRVTITCRASQSISSSLNWYRQEPGKAPKFLIYIASNLQSGVPSRFSGSGSGTDFTLTISSLQPEDFATYYCQQSYSTPWTFGQGTKVEIK
# B4: C3-2-3F02 (protein)
# chain 1: VQLVESGGGVVRPGGSLRLSCEASGFTFRVYDMHWVRQAPGKGLEWVAFIRRDGSNEYVIDSVKGRFTISRDNSKNTVYLRMNSLRPEDTALYYCAKLPQRLDEGDYYFDMEVWGQGTTVTVSS
# chain 2: DIQMTQSPASLSAAVGDRVTITCRASQGVGNDLGWYQQKPGKAPKRLIYAASSLEDGVPSRFSGSGSGTDFTLTISSLQPEDFATYYCLQHSTYPLTFGGGTKVEIK
# B5: K77-2F02 (protein)
# chain 1: EVQLVESGGVVVQPGGSVRLSCAASGFTFDDYAMHWVRQAPGKSLEWVSLISWDGGNTYYADSVRARFTISRDNDKNSLYLQINSSRPEDTALYYCARDQGSSWYSGKLGIDYWGQGALVTVSS
# chain 2: DIVMTQTPLSLSVTPGQPASISCKSSHSLLHSDGKTYLYWYLQKPGQSPHLLIYEVSSRFSGVPDRFSGSGSGTDFTLKISRVEAEDVGVYYCMQGMHVPRLTFGGGTKVEIK
# B6: AG13-3G01 (protein)
# chain 1: VQLVQSGPEVKKPGASVKVSCKASGYTFTSNHIHWLRQAPGQGIEWMGWINPDTGDTEYSRKFQGRVTMTRDTSMTSAYMDLNWLGSADTGVYYCARDRENRLDIVTVPPDNWFDSWGQGTLVTVSS
# chain 2: EIVMTQSPATLSASPGGRVTLSCRASQSVSNNLVWYQQKPGQAPRLLIYDASTRATGVPGRFSGSGSGTEFTLTISSLQSEDFAIYYCQQYQNWPTFGQGTKVEIK
# B7: W85-3D10 (protein)
# chain 1: EVQLVESGGGLVQPGGSLRLSCAASGLSVSGNYISWVRQAPGKGLEWVSVMYAGGRKYYADSVKGRFSISRDQSKNTVYLQMDSLRVEDTAVYYCAGTYLEWLDYWGQGTLVAVSS
# chain 2: DIQMTQSPSSLSASVGDRVTITCRASQSISTYLNWYQQRPGRAPKLLIYAASTLQSGVPSRFSGSGSGTDFTLTITGLQPADFATYYCQQTYSSLITFGPGTRVDLK
# B8: AG8-2D02 (protein)
# chain 1: VQLVQSGAEVKKPGASVRLSCKASGFRFTNYYFNWVRQAPGQGLEWMGIINPSGGATTYAQKFQGRVTMTRDTSTSTVYMELGSLRSEDTAVYYCARMATLTASYFYSYGMDVWGQGTTVTVSS
# chain 2: EIVLTQSPGTLSLSPGERVTLSCRASQSVSSSYVAWYQQKPGQAPRLLIYAASTRATGIPDRFSGSGSGTDFTLTISRLEPEDFAVYYCQQYGTSPALTFGGGTKVEIK
# B9: R95-1G10 (protein)
# chain 1: EVQLVESGGGSVQPGGSLRLSCAASGFSFSNYWMHWVRQAPGKGLVWVSRVISDGTITSYVDSVEGRFTISRDNAENTLYLQMDSLRAEDTAVYYCARGYSTSSGIWYFDLWGRGTLVTVSS
# chain 2: SYELTQPPSVSVAPGQTARVTCGGDNIGSKSVHWYQQKSGQAPVLVVYDDSDRPSGIPERFSGSNSGNTATLTISRVEAGDEADYYCQVWDSSTDHWVFGGGTKLTVL
# B10: R95-1B02 (protein)
# chain 1: QVHLQESGPGLVKPSETLSLTCSVSAGSLTSHFWSWIRQPPGKGLEWIGYIHHSGTTGYNPSLKSRVTISVDTSKNQFSLHLTSVTAADTAVYYCARDGSSTSWYFDFWGRGTLVTVSS
# chain 2: QSALTQPRSVSGSPGQSVTISCTGTASDVGAYDFVSWYRQHPGKAPKLIIYDVSQRPSGVPDRFSGSKSGNTASLTISGLQADDEGDYHCCSYTGTDTSGVFGGGTKLTVL
# B11: K77-1C11 (protein)
# chain 1: QVQLQESGPGLVKPSETLSLSCTVSGGSISTYDWSWIRQSPGKGLEWIGCIYYIGRTEYNPSLKSRVTISVDTSKNQFSLKLSSVTAADTAVYYCARDGRGYSGYDYYNYYGMDAWGQGTTVTVSS
# chain 2: NFMLTQPHSVSESPGKTVVISCTRSSGSIDSNYVQWYQQRPGSSPTIVIYVDNQRPSGVPDRFSGSIDSASNSASLTISGLKTEDEADYYCQSNDNNNRVFGGGTKLTVL
# B12: 01.g.01 (protein)
# chain 1: EVQLVESGGGLVKPGGSLRLSCAASGFTFSSYSMNWVRQAPGKGLEWVSSISSNSYFIYYADSVKGRFTISRDNAKNSLSLQMNSLRAEDTAIYYCARDAGSTGYDYYFDYWGQGTLVTVSS
# chain 2: EIVMTQSPATLSVSPGERATLSCRASQSVSSNLAWYQQKPGQAPRLLIYGASTRATGIPARFSGSGSGTEFTLTISSLQSEDFAVYYCQHYNNWPPWTFGQGTKVEIK
# B13: C1-2-C06 (protein)
# chain 1: VQLLESGGGLVQPGGSLRLSCVASGFSFSKYGMSWVRQVPGKGLEGVASVSVGGGYSHYSDYVAGRFVISKEVSSNTLHLQMSRLRAEDTAVYYCVKNRGWQLGPDAFDSWGQGTMVTVSS
# chain 2: AIQLTQSPSSLSASLGDRVVITCRASQGVNRDLAWYQQKPGEVPSLLMSSVSLMKSGVPSRFSGSGSGTDFTLTINGLQSEDFAIYYCQQFNSYPITFGQGTRLEIK
# B14: antibody 2G04 (protein)
# chain 1: VQLVESGGGLVQPGRSLRLSCAASGFTFDDYAMHWVRQAPGKGLEWVSGINWNSGVVGYADSVKGRFTISRDNAKNSLYLQMTSLRAEDTALYYCAKDMHLSAMDILRDAFNMWGQGTMVTVSS
# chain 2: DIQMTQSPSTLSASLRDRVTITCRASQSISRWLAWYQQKPGKAPKLLIYAASTLESGVPPRFSGSGSGTEFTLTISSLQPDDFATYYCQQYNSDVTFGQGTRLEIK
# B15: AG2-B01 (protein)
# chain 1: VQLVESGGGLIQPGGSLRLSCAVSGFGVSSKYMSWVRQTPGKRLEWVSIIYAGGNTYYGGSLRGRFTISRDTVKNIVFLDMKSLRGEDTAVYYCARGLSNVYPNTFDLWGQGTLVTVSS
# chain 2: DIVMTQSPFSLPVTPGEPAFISCRSSQSLLHTDGYNYVDWYLQRPGQSPQLLIYLASYRASGVPDRFSGSGSGTDFTLRISRVEADDVGIYYCMQPLQAPTFGQGTRLEIK
# B16: 3C11 (protein)
# chain 1: QVQLVQSGAEVKETGESLNISCKVSGNNFPSYYISWVRQMPGNGLEWMGRIDPSDSDTNYRPSFQGHVTISADKSTSTAYLQWRSLKASDTAMYYCARRATYYYGSGSYFDAFDIWGQGTMVTVSS
# chain 2: EIVMTQSPLTLPVTPGAPASISCRSSQSLLHSDGYNYLDWYLQKPGQSPQLLIYLGSHRASGVPDRFSGSGSGTDFTLKISRVEAEDVGVYYCMQALQTPDFGQGTRLEIK
# B17: 220-14-IgG-1A03 (protein)
# chain 1: EVQLVESGGGLVQPGGSLRLSCAASGFTFSNYWMNWVRQGPGKGLVWVARINSDGSRTIYADSVKGRFTISRDNPKNTLYLEMNSLRAEDTAVYFCAREPYFPLYFDYWGQGALVTVSS
# chain 2: DIVMTQSPLSLPVTPGEPASISCRSSQSLLHRNEDNYLNWYLQKPGQSPQILIYFGSNRASGVPDRFSGSGSGTDFTLKISRVEAEDVGVYYCMQALQTPFTFGQGTKVEIK
# B18: antibody 3C04 (protein)
# chain 1: VQLVQSGAEVKKPGASVKVSCKASGYTFTYHYVYWVRQAPGQGLEWMGWMSPKTGDTNISQRFQGRVTMTRDTSITTAYMEMSRLRFDDTAVYYCTRGQYSDHFDSWGQGTLVTVSS
# chain 2: SYELTQPPSVSVAPGQTAMITCGGNHIGTKSVHWYQQRPGQAPVLVVYDNRVRSSGIPERFSGSNSGNTATLTISRVEAGDEADYYCQVWDSSSDHNVVFGGGTKLTVL
# B19: W85-1F07 (protein)
# chain 1: QVQLAQSGPEVKKPGTSVKVSCKASGFTFSRAAVQWVRQARGQPLEWMGWIVGGSGKANYAQKFQERVTITRDMSTSTAYMELSSLRSEDTAVYYCAADASGYDLHYYYYYGMDVWGQGTTVTVSS
# chain 2: QSALTQPASVSGSPGQSITISCTGTSSDVGGYDFVSWYQQCPDNAPKLMIYEVSHRPSGVSNRFSGSKSGNTASLTISGLRSEDEADYYCSSYTITNTWVFGGGTKLTVL
# Target: H1 HA stem construct (mini-HA #4900)
# Test: mRNA display binding score; higher = more enriched on the antigen
# Conditions: antigen blocked with: nothing
# Description: (§1)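 A pool of natively paired antibodies, displayed as scFv on mRNA, was selected once on antigen-coated beads and sequenced before and after; two replicates.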
row,Binder,mRNA display binding score
1,B1,inactive: 0.69
2,B2,inactive: 0.552
3,B3,inactive: 0.0119
4,B4,inactive: -0.902
5,B5,inactive: -0.187
6,B6,inactive: -0.674
7,B7,inactive: -0.374
8,B8,inactive: 0.0462
9,B9,inactive: -0.602
10,B10,inactive: 0.125
11,B11,inactive: 0.166
12,B12,inactive: -0.678
13,B13,inactive: -0.191
14,B14,inactive: 0.0351
15,B15,inactive: 1.14
16,B16,inactive: -0.401
17,B17,inactive: -0.171
18,B18,inactive: -1.13
19,B19,inactive: -0.354

# Target: H3 HA stem construct (H3ssF)
# Test: as above
# Conditions: antigen blocked with: nothing
# Description: as §1
row,Binder,mRNA display binding score
1,B1,inactive: -0.0273
2,B2,inactive: 4.1e-06
3,B3,inactive: -0.284
4,B4,inactive: -0.461
5,B5,inactive: -0.573
6,B6,inactive: -0.798
7,B7,inactive: 0.466
8,B8,inactive: 10.7
9,B9,inactive: -0.381
10,B10,inactive: 0.0683
11,B11,inactive: -0.0597
12,B12,inactive: -0.49
13,B13,inactive: 1.82
14,B14,inactive: -0.232
15,B15,inactive: -0.64
16,B16,inactive: -0.0531
17,B17,inactive: 0.204
18,B18,inactive: -0.026
19,B19,inactive: -0.0147
